# Test results reported in ChEMBL document CHEMBL4888484, “Replenishing the malaria drug discovery pipeline: Screening and hit evaluation of the MMV Hit Generation Library 1 (HGL1) against asexual blood stage Plasmodium falciparum ,using a nano luciferase reporter read-out” (2022).
# Among all 150,000 compounds or so, about 540 (0.36%) showed an effect of 50% or more. This is one part of the list.
# Tested on: Plasmodium falciparum
# Assay: Primary screen in NF54 nanoGlo assay, in single point, at 2uM, 72h; a lower Z score goes with more inhibition
# Type: functional, Erythrocyte
# Settings: timepoint 72 hour
Compound,% Inhibition,Z score
Cc1ccc(Cn2c(=O)c(C(=O)NCC3CC3)nn(-c3ccc(C(F)(F)F)cc3)c2=O)cc1,-8%,0.8
O=S(=O)(Cc1cccc(C(F)(F)F)c1)Nc1cnccn1,13%,-1.51
Cc1cnc(N2CCn3nc(CNc4cnccn4)cc3C2)nc1N(C)C,-13%,1.32
C=CCn1ncc(-c2nc3c(cnn3Cc3cccc(Cl)c3)[nH]2)c1C,9%,-1.2
O=C(Nc1ccc(Cl)c(F)c1)N1CCC[C@H](C(=O)N2CCCC2)C1,-11%,1.4
Nc1nc(NCCOCc2ccc(Cl)cc2)cc(C2CC(O)C2)n1 (stereo not drawn),5%,-0.97
Cc1ccc(NC(=O)c2cc3n(n2)CCCC3)c(Cl)c1,-2%,0.22
CN(C)C(=O)NCc1cc2n(n1)CCCN(C/C=C/c1ccc(F)cc1)C2,7%,-0.67
Cc1nc(N(C)C)sc1CN1CCC(n2cc(Cl)cn2)CC1,-8%,1.23
Cc1cscc1C(=O)N[C@H](C#N)c1ccsc1,-10%,1.05
COc1cccc(C2CN(C(=O)c3ccc4c(c3)OCO4)CC2C(=O)NCC(C)C)c1 (stereo not drawn),-18%,1.9
COC(=O)c1cn(Nc2nc3ccccc3[nH]2)cc(C(=O)OC)c1=O,-10%,1.43
Cc1noc(C)c1NC(=O)c1cccnc1,-7%,1.27
COc1ccc(C)cc1NC(=O)Cc1csc(NC(=O)[C@@H]2CCC(=O)N2)n1,-4%,0.75
O=C(COc1ccc2ccccc2c1)N(Cc1nnc(-c2ccc(Cl)cc2)o1)C1CCCC1,5%,-0.5
COc1ccc2cc1Oc1cccc(c1)CO[C@H]1CCN(C(=O)c3nn(C)c(C)c3Cl)C[C@H]1NC(=O)CC2,-13%,1.61
CCO[C@H]1C[C@@H](O)C12CCN(C(=O)CCc1c(C)noc1C)CC2,-18%,1.78
CCOC(=O)c1cc(NC(=O)N(C)Cc2nccn2CC)ccc1Cl,13%,-1.83
NC(=O)c1ccc(C(=O)N2CC3(CCN3Cc3ccccc3)C2)cc1,13%,-1.7
O=S(=O)(c1cccc2nonc12)N1CCOCC1,-1%,0.11
COCCCNC(=O)C(C)NC1CCCCC1C (stereo not drawn),0%,0

Compound,% Inhibition,Z score
c1cc(-c2nc([C@H]3CCOC3)no2)cc(-n2cnnn2)c1,-7%,0.74
COC(C)(C)c1nc(CC(=O)NC2CCCC2)no1,-8%,1.04
Cn1cc(S(=O)(=O)N2CCCCc3ccc(Cl)cc32)cn1,-9%,1.55
COc1ncnc(N)c1CNCC1CCOC1c1ccccc1 (stereo not drawn),9%,-1.01
Cc1cc(C2(C(=O)Nc3ccc(F)c(N4CCOCC4)c3)CCOCC2)on1,-14%,2.79
CCC(CC)N(C)C(=O)N[C@@H](C)Cc1ccsc1,-3%,0.25
CC1CCCN(C(=O)CCCc2ccc3[nH]c(=O)[nH]c3c2)C1CN (stereo not drawn),2%,-0.34
CCn1ncc(NC(=O)Cn2ncc3cc(-c4cccc(OC)c4)ccc32)n1,-17%,2.37
O=C(c1cccs1)N1CC[C@H]2[C@H](CCC(=O)N2CCc2c[nH]cn2)C1,-20%,3.36
O=C1NCCN2CC3(CCN(C(=O)CCC4CCCC4)CC3)C[C@@H]12,-3%,0.61
Cc1ccc(N2C(=O)N[C@@](c3ccc(F)cc3)(C(F)(F)F)C2=O)nc1,-4%,0.62
Clc1ccc(OC[C@@H]2CCCN2)cc1,-4%,0.41
CN(CCO)c1ccc(/C=C/C2CCCCC2)nn1,10%,-1.28
O=C(Cc1ccccc1F)N1CC[C@H](c2nc(C3CCOCC3)no2)C1,-10%,1.49
C[C@H](NC(=O)OC(C)(C)C)c1cnccn1,-6%,0.63
C[C@H]1CN(C(=O)NCC2CCCCC2)C[C@@H]1CS(N)(=O)=O,-19%,3.84
CCCCNC(=O)c1ccccc1Cl,6%,-0.73
CC(Cc1ccccc1Cl)NC(=O)C1CCNC1 (stereo not drawn),3%,-0.4
CCCOc1ccc(C(O)CCNC(C)C(=O)O)cc1 (stereo not drawn),-5%,0.58
COCCN(CC1CCN(Cc2ccccc2F)CC1)C(=O)C1CCCC1,-20%,1.85
CCC(=O)NCc1cccc(-c2cccc3ccnn23)c1,-4%,0.7

Compound,% Inhibition,Z score
Cc1ccc(-c2nccc(Oc3ccc(C(=O)NCc4ccc5c(c4)OCO5)cc3)n2)cc1,-13%,1.72
CC(C)Cc1nnc(C[C@H]2CCN(C(=O)c3cscn3)C2)o1,-9%,1.25
Cc1ccc(C(=O)N2CCCn3cc(-c4cccc(C#N)c4)nc32)cc1,-6%,0.96
O=C(NCc1ccco1)N[C@H]1CCCS(=O)(=O)C1,-2%,0.48
COc1nc2c(cc1CNC(=O)c1ccc(N)nc1)C(=O)N(C1CCCC1)C2,-16%,2.25
CC(C)NC(=O)N[C@H]1CCN2C(=O)c3cc(-c4ccc5c(c4)OCO5)ccc3NC(=O)[C@@H]2C1,17%,-1.96
O=C(Nc1cccc(F)c1)c1nnc(COCC(=O)N2CCOCC2)s1,-6%,0.9
Cc1ccccc1CNC(=O)[C@H]1CCCN(c2nnc3ccccn23)C1,-12%,1.27
c1ccc(Cc2noc(C3CNC3)n2)cc1,-4%,0.78
O=C(c1cc(C2CC2)on1)N1CCc2cc(-c3ccncc3)ccc21,-4%,0.7
Cc1cccc(CN(Cc2ccc3c(c2)OCO3)Cc2nc(C(=O)NCCN(C)C)co2)c1,-3%,0.63
Cc1cc(-c2cc(O)cc(CC[C@H]3CCCCN3)c2)ccn1,84%,-8.44
N#Cc1ccc(C(=O)NS(=O)(=O)CC2CCC2)cn1,-3%,0.41
C[C@]1(C(=O)NCC2CCC(c3nc4ccccc4[nH]3)CC2)CCCNC1 (stereo partly drawn),0%,-0.02
Cc1nnc(-c2cc(CCC(C)C)n(-c3cccc(C(=O)N4CC(C)CC(C)C4)c3)n2)o1 (stereo not drawn),-16%,1.95
Cc1noc(C)c1S(=O)(=O)NC[C@H](O)c1cccn1C,-13%,2.26
CC(c1nnnn1C)N1CCCC1CC(=O)c1ccc(F)cc1 (stereo not drawn),-3%,0.38
O=C(Nc1cccc(F)c1Cl)N1C[C@H](Cc2ccccc2)[C@@H](O)C1,-8%,1.03
CNC(=O)C[C@H]1CCN(c2nc(C)cc(C)n2)C1,-15%,1.45
Cc1csc(NC(=O)c2sc3nc(-c4ccncc4)ccc3c2N)n1,-10%,1.42
O=C(Cc1cc(F)cc(F)c1)N[C@H]1CCOC[C@@H]1O,-9%,1.61

Compound,% Inhibition,Z score
CCCC[C@H](NCC(=O)NCCOC)c1ccc(Cl)cc1Cl,-15%,1.32
Cc1cc(C)cc(NC(=O)C[C@H]2CN(C(=O)c3ccc[nH]3)CCS2(=O)=O)c1,-14%,1.47
CCc1nn(C)c(CC)c1CC(=O)N1CC[C@H](C(=O)N(C)C)C1,-12%,2.21
Cc1c(Cl)cccc1S(=O)(=O)N1CCC[C@H](c2nnc(-c3ccsc3)o2)C1,-12%,1.37
CCOC(=O)N[C@@H](CNc1cc(C)ccn1)C1CC1,-8%,0.88
C[C@H](NC(=O)c1cc2n(n1)CCCN(Cc1ccc(F)cc1)C2=O)C(=O)N1CCOCC1,-11%,1.72
COc1ccccc1[C@H](CO)NC(=O)CN1C(=O)Cc2ccccc21,29%,-3.24
CC(C)C[C@@H](CN(C)C)NC(=O)C(=O)Nc1ccn(Cc2ccncc2)n1,-7%,1.15
CN1C[C@@H](NC(=O)c2cnc(Cc3c(Cl)cccc3Cl)nc2O)CCC1=O,7%,-0.79
COCC(=O)N1CCC(C(=O)N(C)[C@@H](C)c2c(C)nn(C)c2C)CC1,-5%,0.6
O=C(Cc1noc2ccccc12)N1CCC[C@H](c2nnc3ccccn23)C1,-13%,1.19
Cc1cnc([C@H](C)Nc2ccnc(N(C)C)n2)o1,-4%,0.38
Cc1cc(NC(=O)NCCc2nc(C)oc2C)on1,0%,0
CCN(C[C@H]1CCCO1)C(=O)c1ccc(-c2ccc(C(C)=O)cn2)cc1,-11%,1.58
COCCCn1cnc2c(-c3ccccc3)cn(CC(=O)Nc3ccc4c(c3)OCO4)c2c1=O,10%,-1.46
CC(=O)N1CCc2cc(S(=O)(=O)N3CCNC(C)C3C)ccc21 (stereo not drawn),-11%,1.96
C[C@@H](Cn1cncn1)NC(=O)Nc1c(-c2ccccc2)cnn1C(C)(C)C,5%,-0.65
CCNc1ccnc(-c2ccc(OC)nc2)n1,-2%,0.37
CCNC(=O)N(CC(=O)N1CCc2sccc2C1COc1ccc(C(C)C)cc1)CC1CCCO1 (stereo not drawn),-4%,0.5
CCn1cncc1-c1c(-c2ccccc2)ncn1CCc1c[nH]cn1,9%,-1.28
CCOc1cccc(-c2ccc3nc(-c4ccc(Cl)cc4)c(CCC(=O)N[C@@H](C)CC)n3c2)c1,4%,-0.58
